Laboratory results published in PubChem BioAssay AID1508624 (National Center for Advancing Translational Sciences (NCATS), 2021).
About 120 (0.25%) of roughly 48,000 compounds were called active. Roughly 4% stayed inconclusive and do not appear here. Calls come from the whole dose curve; as a rule, active = well fitted activation curve with a large enough effect; inconclusive = small, poorly fitted or top-dose-only effect, or another doubt; inactive = no such curve, though single readings can be large or run the other way. The list shows a part of the results.

Test: Primary qHTS for Identification of Small Molecule Activators of Huntingtin-Antisense Promoter Activity; note: nearly all actives have a fitted effect of over 55% in size
Conditions: HEK293 HTT-AS promoter firefly luciferase reporter (activity 0% = vehicle and -100% = no light), 24 h; series mostly up to 57.5 µM; activity change, positive = activation: at the top concentration
How it was run: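 HEK293 luciferase promoter-reporter cells (2,500/well) plated 24 h, then compounds added at up to 57.5 uM final for 24 h at 37 °C. Firefly luminescence by Dual-Glo, normalized to vehicle (0%) and zero RLU (-100%).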

Activity change, positive = activation, inactive:
CCCCNC(=O)CCn1c(=O)c2ccccc2n(Cc2cccc(Cl)c2)c1=O -11.3%
Cc1noc(/C=C/c2ccccc2F)c1S(=O)(=O)N1CCC(C(=O)Nc2ccc(C#N)cc2)CC1 -15.6%
COc1cccc(NC(=O)Nc2ccc3nc(N4CCN(C)CC4)cc(C)c3c2)c1 11.1%
CCOC(=O)c1cnc2ccc(OCC)cc2c1N1CCN(c2ccccc2F)CC1 -29.3%
CCOC(=O)C1CCC(CN(Cc2ccc(OC)cc2)S(=O)(=O)c2ccc(F)c(C(=O)Nc3cc(C)ccc3C)c2)CC1 (centres undefined) -13.5%
Cc1nc(N2CCCC2)c2c(C(=O)Nc3ccc(Br)cc3F)c(C)oc2n1 -27.8%
CCOc1ccc(NC(=O)c2ccc3snnc3c2)cc1 9.39%
CC(C)NC(=O)C1CCC(Cn2c(=O)c3sccc3n(CC(=O)Nc3ccccc3)c2=O)CC1 (centres undefined) -15.5%
Cc1ccccc1C(=O)Nc1nc(-c2ccc(Br)cc2)ns1 -30.7%
COc1ccc(-c2csc3nc(-c4ccccc4)oc(=O)c23)cc1OC -9.98%
CCOC(=O)c1c(C)n(-c2ccccc2)c2ccc(OC(=O)c3cccc(Cl)c3)cc12 -4.45%
Cc1cccc(-c2nc(CSc3nncn4c3cc3sccc34)c(C)o2)c1 -5.04%
CCOC(=O)c1ccc(CN(Cc2ccccc2)S(=O)(=O)c2ccc(Cl)cc2)cc1 -15%
CC(C)Oc1ccc(CNC(=O)C2CCN(C(=O)N3CC(C)Oc4ccccc43)CC2)cc1 (centres undefined) -32.8%
CC(=O)c1cc(-c2ccccc2)n(CC(=O)NCCc2ccc(C)cc2)c1C -19.2%
FC(F)(F)c1cc(-c2cccc(Br)c2)nc2ncnn12 -3.37%
Cc1ccc(Cl)cc1NC(=O)CCn1c(=O)c2cccn2c2cccnc21 -3.11%
Cc1ccc(NC(=O)Cn2cc3c(n2)CCCC3)c(C)c1 -9.76%
O=C(NC1CCCCC1)c1ccc(CSc2nc3ccncc3n2Cc2ccccc2F)cc1 1.75%
COc1ccc(NC(=O)CSc2nc(-c3cccs3)cc(C(F)(F)F)n2)c(OC)c1 -23.2%
O=C(CSCc1cnn(-c2ccccc2)c1-n1cccc1)NCc1ccc(F)cc1 -24.1%
CCN(CC)CCCNC(=O)CSc1nc(-c2ccc(OC)cc2)cc(C(F)(F)F)n1 2.79%
Oc1c(C(c2ccccc2Cl)N2CCN(Cc3ccccc3)CC2)sc2nc(-c3ccco3)nn12 (centres undefined) -11.2%
CCc1ccc(NC(=O)CSc2ccc(-c3cccs3)nn2)cc1 -15.5%
Cc1noc(Cn2c(=O)c3cc4c(cc3n(CC(=O)Nc3ccccc3F)c2=O)OCO4)n1 -10.5%
CC1CCc2c(sc(NC(=O)Cn3nnc(-c4ccc(C(F)(F)F)cc4)n3)c2C#N)C1 (centres undefined) 3.52%
COc1ccc(CC(=O)NCCc2sc(-c3ccc(Cl)cc3)nc2C)cc1OC -40.9%
CC1CCN(c2cc3c(cc2F)c(=O)c(S(=O)(=O)c2cccc(Cl)c2)cn3Cc2ccccc2)CC1 4.66%
COc1ccccc1CNS(=O)(=O)c1ccc(-c2cc(C(F)(F)F)on2)s1 -30.1%
Cn1nc(-c2ccccc2F)c2cc(C(=O)NCc3ccc(Cl)cc3)sc21 -35.6%
COc1ccc(C2=C(C(C)=O)Sc3nnc(-c4ccc(C)cc4)n3N2C(C)=O)cc1OC -3.33%
COc1ccc(NC(=O)C(=O)NCCc2sc(-c3ccc(Cl)cc3)nc2C)cc1 11.2%
CCOC(=O)[C@H](CCc1ccccc1)N[C@@H](C)C(=O)N1C(=O)N(C)C[C@H]1C(=O)O -1.21%
CN1CCCN(C(c2ccccc2)c2ccc(Cl)cc2)CC1 (centres undefined) -13.4%
CCOc1ccc(NC(=O)c2ccc3c(SCC(=O)O)c4c(nc3c2)CCC4)cc1 -7.88%
COc1ccc(OC)c(C2c3c(-c4ccc(Br)cc4)n[nH]c3C(=O)N2c2ccc(Cl)cc2)c1 (centres undefined) -40.1%
C[C@@H]1C[C@H]2[C@@H]3CCC4=CC(=O)C=C[C@]4(C)[C@@]3(Cl)[C@@H](O)C[C@]2(C)[C@@]1(OC(=O)c1ccco1)C(=O)CCl
CCOC(=O)c1c(Nc2cccc(C(=O)OC)c2)nnc(-c2ccccc2)c1-c1ccccc1 -49.5%
COc1ccccc1C(=O)Nc1ccc(NC(=O)c2cccs2)cc1 -29%
CCOc1ccc(S(=O)(=O)NCC(c2ccco2)S(=O)(=O)c2ccc(C)cc2)cc1 (centres undefined) -12.1%
COc1ccc(Nc2cc(C(=O)NCCCN(C)Cc3ccccc3)c3ccccc3n2)c(OC)c1 -12.4%
COc1ccccc1NC(=O)N1CCN(c2nnc(C)c3c(C)n(-c4ccc(Cl)cc4)nc23)CC1 2.66%
CCOC(=O)c1cnc2c(cnn2CC)c1NN=C(C)C 3.72%
CCOc1ccccc1NC(=O)COC(=O)c1cn(CC)c2nc(C)ccc2c1=O -19.6%
COc1cc(-c2nc3ccccn3c2Nc2ccccc2C)ccc1O -10.6%
O=C(Nc1cccc(C(F)(F)F)c1)N1CCC(CN2CCCCCC2)CC1 4.32%
CCc1ccc(CN2C(=O)c3ccccc3C2C(=O)NC2CCCCCC2)cc1 (centres undefined) -22.4%
CCOc1ccc(-c2c(C)nn3c(C)c(C(=O)NCc4cccc(OC)c4)cnc23)cc1OCC -20.8%
CCc1ccccc1Nc1nn2c(=O)c3ccc(C(=O)NC4CCC(C)CC4)cc3nc2s1 (centres undefined) -12.4%
CC(=O)Nc1ccc(S(=O)(=O)NCc2ccc3c(c2)CCN3C(C)=O)cc1 -10.8%
Cc1oc(-c2ccccc2)nc1Cn1c(SCc2cccc(C(F)(F)F)c2)nc2cccnc21 -33.9%
CCc1cnc2c(c1SCc1c(F)cccc1Cl)c(=O)n(C)c(=O)n2C -29.6%
CCOc1cc(C(=O)N(Cc2nc(-c3ccc(C)cc3)no2)C(C)C)cc(OCC)c1OCC -32.3%
COc1ccc(-n2ncc(C(=O)N3CCN(Cc4ccccc4)CC3)c2C2CCN(C(=O)OC(C)(C)C)CC2)cc1 -12.3%
CCOC(=O)c1ccc(NC(=O)CC2C(=O)N(c3ccccc3)C(=O)N2Cc2ccc(C)cc2)cc1 (centres undefined) -15%
Cc1nn(C(=O)COc2ccc(Cl)cc2)c(C)c1Sc1ccccc1 17.5%
COc1ccc(CCNC(=O)CCCn2c(=O)c3ccccc3n(CC(=O)Nc3cccc(C)c3)c2=O)cc1OC -21.2%
CCOC(=O)c1c(NC(=O)c2ccc(S(=O)(=O)N3CCC(C)CC3)cc2)sc2c1CCN(C(C)C)C2 -18.4%
O=C(NCc1ccc(F)cc1)c1c2c(nc3ccccc13)C(=O)N(C1CCCCC1)C2 -11.6%
